Test results taken from PubChem BioAssay AID1347073 (National Center for Advancing Translational Sciences (NCATS), 2019).
Out of some 45,000 compounds screened, about 200 (0.44%) were called active. Roughly 7% stayed inconclusive and do not appear here. Calls come from the whole dose curve; as a rule, active = well fitted activation curve with a large enough effect; inconclusive = small, poorly fitted or top-dose-only effect; inactive = no such curve, though single readings can be large or run the other way. Some of the results follow. Peptide text beside a SMILES is read from it. * marks the point of attachment. Boc = CC(C)(C)OC(=O)*

Experiment: qHTS of TDP-43 Inhibitors: NCGC Sytravon Library Screen; note: 0% is about no effect; nearly all actives have a fitted effect of over 55% in size
Conditions: yeast TDP-43 toxicity rescue, BacTiter-Glo growth, 24 h; series mostly up to 46.1 µM; growth rescue (activation): at the top concentration
Summary of the method: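 TDP-43-expressing yeast, pregrown in raffinose, seeded at OD600 0.02 in galactose medium with compound for 24 hr at 30 deg C. Growth read by BacTiter-Glo luminescence, so rescue of toxicity appears as activation.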

SMILES	growth rescue (activation)
COC(=O)C(Cc1ccccc1)NC(=O)C(CC(C)C)NC(=O)OC(C)(C)C (stereo not drawn) (Boc-Leu-Phe-OMe; configuration not given here)	inactive: 6.74%
Fc1ccc(C2c3[nH]c4ccccc4c3CCN2CCCn2cccn2)cc1 (stereo not drawn)	inactive: -24.4%
CC(C)CNc1ncnc2c1ncn2[C@H]1CN(Cc2ccc(-c3ccccc3)cc2)C[C@@H](CO)O1	inactive: 1.04%
COc1ccc(COc2ccccc2C(=O)NCc2ccccc2)cc1F	inactive: 12.8%
COC(=O)c1ccc(N2CCN(C(C)=O)CC2)c(NC(=O)COc2ccccc2C)c1	inactive: 12.1%
CC(C)N(C(=O)c1ccc(C(=O)Nc2ccc([N+](=O)[O-])cc2)cc1)C(C)C	inactive: -11.2%
COc1ccc(-c2cc(NC=O)c3ncc(-c4cccc(C(C)=O)c4)n3c2)cc1	inactive: 7.97%
CC(=O)Nc1ccc(OCC[n+]2cccc(C(N)=O)c2)cc1	inactive: 3.2%
O=C(O)C12CC3CC(C1)CC(n1ncc(N4CCN(c5ccccc5)CC4)c(Cl)c1=O)(C3)C2	inactive: 4.06%
Cc1ccc(NC(=O)c2cc(S(=O)(=O)NCCC3=CCCCC3)ccc2F)cc1F	inactive: -2.44%
CC1=NN(C(=O)c2ccc(Cl)cc2)C(O)(c2ccccc2)C1 (stereo not drawn)	inactive: 12.9%
Cc1ccc(Cl)cc1N1CCN(C(=O)C2CCN(S(=O)(=O)c3c(C)nn(C)c3C)CC2)CC1	inactive: 8.99%
COCCCN(CC(=O)O)S(=O)(=O)c1ccccc1	inactive: 8.4%
CC(C)(C)C(=O)Nc1cc(C(F)(F)F)ccc1-n1ccnc1	inactive: -3.59%
COc1ccc(NC(=O)c2cccc(OS(=O)(=O)N(C)C)c2)cc1	inactive: 12.1%
Cc1nc2ccccc2c(=O)n1NC(=O)CCC(=O)O	inactive: 4.41%
CC(C)(C)C(=O)Nc1ccccc1C(=O)NCc1ccco1	inactive: -2.91%
Cc1sc2ncn(CC(=O)NCCCC(=O)NCc3ccc(F)cc3)c(=O)c2c1C	inactive: 9.14%
CCOC(=O)c1ccc(NC(=O)c2cccc(S(=O)(=O)N3c4ccccc4CC3C)c2)s1 (stereo not drawn)	inactive: 14.3%
O=C1c2ccccc2C(=O)C12OC2c1ccc(Cl)cc1Cl (stereo not drawn)	inactive: 24.4%
COc1cccc(CC(=O)Nc2sc3c(c2C(N)=O)CCCC3)c1	inactive: 16.5%
COc1cc(NC(=O)CSc2nnc(NC(C)C)s2)cc(OC)c1OC	inactive: 1.49%
COc1ccc(CN2CCN(C(C)C(=O)NC(C)c3ccc(F)cc3)CC2)cc1F (stereo not drawn)	inactive: -7.24%
Cc1ccccc1CC1(CO)CCCN(Cc2ccn[nH]2)C1 (stereo not drawn)	inactive: 15.2%
CC(CC(=O)O)CC(=O)Nc1nncs1 (stereo not drawn)	inactive: 5.86%
COc1ccc(NC(=O)CCc2nnc3n(C)c(=O)c4sccc4n23)cc1	inactive: 1.45%
O=C(CCc1ccccc1)c1nnc(-c2ccccc2)o1	inactive: -1.21%
COc1ccc(CCNC(=O)CC2C(=O)NCCN2CC(C)(C)C)cc1 (stereo not drawn)	inactive: 9.21%
